# Measured values as given in the supplement of paper PMC8728848.
# The other results are listed elsewhere or left out.
# Key:
# Experiment in all cases: glycan array binding signal (z-score within array); higher = stronger binding
# Settings in all cases: glycan notation: IUPAC condensed, linker removed
# [1] = target: Fuc(a1-2)Gal
# Method in brief: (§1)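 From the Consortium for Functional Glycomics database, 3228 arrays were curated, keeping only those whose protein sequence was available. Binding is given as a within-array Z-score averaged across arrays sharing a protein sequence and across linkers. Negative Z-scores can be read as non-binding.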
# [2] = target: Fuc(a1-2)Gal(b1-3)GalNAc
# Method in brief: as §1
# [3] = target: Fuc(a1-2)Gal(b1-3)GalNAc(a1-3)[Fuc(a1-2)]Gal(b1-4)Glc
# Method in brief: as §1
# [4] = target: Fuc(a1-2)Gal(b1-3)GalNAc(a1-3)[Fuc(a1-2)]Gal(b1-4)GlcNAc
# Method in brief: as §1
# [5] = target: Fuc(a1-2)Gal(b1-3)GalNAc(b1-3)Gal
# Method in brief: as §1
# [6] = target: Fuc(a1-2)Gal(b1-3)GalNAc(b1-3)Gal(a1-4)Gal(b1-4)Glc
# Method in brief: as §1
# [7] = target: Fuc(a1-2)Gal(b1-3)GalNAc(b1-4)[Neu5Ac(a2-3)]Gal(b1-4)Glc
# Method in brief: as §1
# [8] = target: Fuc(a1-2)Gal(b1-3)GlcNAc
# Method in brief: as §1
# [9] = target: Fuc(a1-2)Gal(b1-3)GlcNAc(b1-2)Man(a1-3)[Fuc(a1-2)Gal(b1-3)GlcNAc(b1-2)Man(a1-6)]Man(b1-4)GlcNAc(b1-4)GlcNAc
# Method in brief: as §1
# [10] = target: Fuc(a1-2)Gal(b1-3)GlcNAc(b1-2)Man(a1-3)[Fuc(a1-2)Gal(b1-3)GlcNAc(b1-2)Man(a1-6)]Man(b1-4)GlcNAc(b1-4)[Fuc(a1-6)]GlcNAc
# Method in brief: as §1
# [11] = target: Fuc(a1-2)Gal(b1-3)GlcNAc(b1-3)Gal(b1-4)Glc
# Method in brief: as §1
# [12] = target: Fuc(a1-2)Gal(b1-3)GlcNAc(b1-3)GalNAc
# Method in brief: as §1
# [13] = target: Fuc(a1-2)Gal(b1-3)GlcNAc(b1-3)[Fuc(a1-3)[Gal(b1-4)]GlcNAc(b1-6)]Gal(b1-4)Glc
# Method in brief: as §1
# [14] = target: Fuc(a1-2)Gal(b1-3)GlcNAc(b1-3)[Gal(b1-4)GlcNAc(b1-6)]Gal(b1-4)Glc
# Method in brief: as §1
# [15] = target: Fuc(a1-2)Gal(b1-3)GlcNAc(b1-3)[Neu5Ac(a2-6)Gal(b1-4)GlcNAc(b1-6)]Gal(b1-4)Glc
# Method in brief: as §1
# [16] = target: Fuc(a1-2)Gal(b1-3)[Fuc(a1-4)]GlcNAc
# Method in brief: as §1
# [17] = target: Fuc(a1-2)Gal(b1-3)[Fuc(a1-4)]GlcNAc(b1-2)Man(a1-3)[Fuc(a1-2)Gal(b1-3)[Fuc(a1-4)]GlcNAc(b1-2)Man(a1-6)]Man(b1-4)GlcNAc(b1-4)GlcNAc
# Method in brief: as §1
# [18] = target: Fuc(a1-2)Gal(b1-3)[Fuc(a1-4)]GlcNAc(b1-3)[Fuc(a1-3)[Gal(b1-4)]GlcNAc(b1-6)]Gal(b1-4)Glc
# Method in brief: as §1
# [19] = target: Fuc(a1-2)Gal(b1-3)[Fuc(a1-4)]GlcNAc(b1-3)[Gal(b1-4)GlcNAc(b1-6)]Gal(b1-4)Glc
# Method in brief: as §1
# [20] = target: Fuc(a1-2)Gal(b1-4)Glc
# Method in brief: as §1
# [21] = target: Fuc(a1-2)Gal(b1-4)Glc6S
# Method in brief: as §1
# [22] = target: Fuc(a1-2)Gal(b1-4)GlcNAc
# Method in brief: as §1
# [23] = target: Fuc(a1-2)Gal(b1-4)GlcNAc(b1-2)Man(a1-3)[Fuc(a1-2)Gal(b1-4)GlcNAc(b1-2)Man(a1-6)]Man(b1-4)GlcNAc(b1-4)GlcNAc
# Method in brief: as §1
# [24] = target: Fuc(a1-2)Gal(b1-4)GlcNAc(b1-2)Man(a1-3)[Fuc(a1-2)Gal(b1-4)GlcNAc(b1-2)Man(a1-6)]Man(b1-4)GlcNAc(b1-4)[Fuc(a1-6)]GlcNAc
# Method in brief: as §1
# [25] = target: Fuc(a1-2)Gal(b1-4)GlcNAc(b1-2)[Fuc(a1-2)Gal(b1-4)GlcNAc(b1-4)]Man(a1-3)[Fuc(a1-2)Gal(b1-4)GlcNAc(b1-2)Man(a1-6)]Man(b1-4)GlcNAc(b1-4)GlcNAc
# Method in brief: as §1
# [26] = target: Fuc(a1-2)Gal(b1-4)GlcNAc(b1-3)Gal(b1-4)GlcNAc
# Method in brief: as §1
# [27] = target: Fuc(a1-2)Gal(b1-4)GlcNAc(b1-3)Gal(b1-4)GlcNAc(b1-3)Gal(b1-4)GlcNAc
# Method in brief: as §1
# [28] = target: Fuc(a1-2)Gal(b1-4)GlcNAc(b1-3)GalNAc
# Method in brief: as §1
# [29] = target: Fuc(a1-2)Gal(b1-4)GlcNAc(b1-3)[Fuc(a1-2)Gal(b1-4)GlcNAc(b1-6)]GalNAc
# Method in brief: as §1
# [30] = target: Fuc(a1-2)Gal(b1-4)GlcNAc6S
# Method in brief: as §1
binder,measurement,setting,value
Gal 9 (Canis lupus) (protein) MAFSSSQPPYLSPGVPFSGKIQGGLQDGLKITINGTILYCNGTRFAVNFHSGHSDSDIAFHFNPRFEEGGYVVCNTKQKGSWGSEERKMQMPFQMGNPFELCFMVNSCDFKVTVNGSHFTQYSHRVPFHYVDTLSITGAVQLSYISFQSPGVWQSSSAPITQTVIHTVQTTPGQPFPNPIIPPTAYPTPTYPMPFFTSIPGGLYPSKSIIVSGTVLPGAKRFHINLRSGNDIAFHLNPRFNENTVVRNMQINNSWGSEERSLPRKMPFVQGQSFSVWIMCEGHCFKVAVDGEHLFEYYHRLKNLLAINNMEVAGDVQLTHVQT,glycan array binding signal (z-score),[1],-0.346
same,glycan array binding signal (z-score),[2],-0.338
same,glycan array binding signal (z-score),[3],0.023
same,glycan array binding signal (z-score),[4],0.071
same,glycan array binding signal (z-score),[5],-0.335
same,glycan array binding signal (z-score),[6],-0.352
same,glycan array binding signal (z-score),[7],-0.342
same,glycan array binding signal (z-score),[8],0.059
same,glycan array binding signal (z-score),[9],-0.152
same,glycan array binding signal (z-score),[10],-0.285
same,glycan array binding signal (z-score),[11],0.273
same,glycan array binding signal (z-score),[12],-0.296
same,glycan array binding signal (z-score),[13],0.15
same,glycan array binding signal (z-score),[14],0.057
same,glycan array binding signal (z-score),[15],-0.017
same,glycan array binding signal (z-score),[16],-0.33
same,glycan array binding signal (z-score),[17],-0.265
same,glycan array binding signal (z-score),[18],-0.356
same,glycan array binding signal (z-score),[19],-0.147
same,glycan array binding signal (z-score),[20],-0.043
same,glycan array binding signal (z-score),[21],0.056
same,glycan array binding signal (z-score),[22],-0.32
same,glycan array binding signal (z-score),[23],0.116
same,glycan array binding signal (z-score),[24],-0.086
same,glycan array binding signal (z-score),[25],-0.006
same,glycan array binding signal (z-score),[26],-0.057
same,glycan array binding signal (z-score),[27],0.039
same,glycan array binding signal (z-score),[28],-0.254
same,glycan array binding signal (z-score),[29],-0.182
same,glycan array binding signal (z-score),[30],-0.098
